Assay results reported in the supplement of paper PMC10126150.
Values marked as one replicate rest on one cluster of the flow cell; about a third of the high ones do not repeat.

tested on: ATP; assay: switch fluorescence ratio, 500 uM ATP over buffer (Cy3 cluster intensity, sum of 5 cycles each) (fold (ratio)); higher = stronger signal-on switching upon ATP binding; sequences stand for … in TCGTCGGCAGCGTCAGATGTGTATAAGAGACAGTTTTTTTTTTTTTTTTTTTTTTTTT…TC; settings: aptamer strand: ATP DNA aptamer (quencher-CACCTGGGGGAGTATTGCGGAGGAAGG + anchor), 100 nM annealed; ATP concentration: 500 uM; one replicate
How it was run: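 The fluorescence ratio divides summed target-cycle Cy3 intensity by summed buffer-cycle Cy3 intensity for each cluster and is averaged per switch-domain sequence. Cy3-labelled switching-strand clusters on a modified Illumina MiSeq flow-cell were annealed to 100 nM quencher-labelled ATP aptamer, then imaged in selection buffer and again after 15 min with 500 uM ATP at 22 °C. Five such cycles were run, with NaOH stripping and re-annealing between them, and clusters outside 100-1000 RFU were excluded.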
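Note: ATP exposure 15 min at 22 °C before imaging.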

Sequence	switch fluorescence ratio
GTTTAGAAGA	0.984
GTTTAGGCTC	0.965
GTTTAGGGCC	1.01
GTTTAGTA	0.936
GTTTATATAG	1.05
GTTTATGGAG	0.985
GTTTCCAGAC	1.02
GTTTCCGTAC	1.04
GTTTCGGGCG	1.07
GTTTCTGGGC	1.02
GTTTGAAACT	1.01
GTTTGAATCT	1.05
GTTTGACCGG	1.02
GTTTGCATGT	0.944
GTTTGCCAGT	1.03
GTTTGCTTGG	0.999
GTTTGGATCA	1.02
GTTTGTGAGT	1.02
GTTTGTGATT	0.974
GTTTGTGCAG	0.993
GTTTGTTCAC	0.983
GTTTTACATC	1.01
GTTTTACGGT	1.01
GTTTTAGATT	1
GTTTTATGGC	1.02

Sequence	switch fluorescence ratio
GTTTTGAGGA	1.01
GTTTTGAGTC	1
GTTTTGCAGC	1.07
GTTTTGGACA	0.984
GTTTTGTGGC	0.967
GTTTTTCCGG	0.998
GTTTTTGCGC	0.967
GTTTTTGGCT	1.05
GTTTTTGTAT	1.02
TAAAAAAAAA	1.02
TAAAAAACAG	0.993
TAAAAACCTC	1.04
TAAAAAGATA	1.28
TAAAACAAGC	1
TAAAACGGG	1.02
TAAAACGTAT	1.01
TAAAAGAGCT	1.03
TAAAAGGTAT	1.04
TAAAATAGAA	0.954
TAAAATCGCC	1
TAAAATCGGT	1.06
TAAAATTACA	1.23
TAAAATTAGG	0.987
TAAAATTTCG	0.995
TAAACAAGCC	1.12

Sequence	switch fluorescence ratio
TAAACAGGGG	1.18
TAAACAGTCG	1.08
TAAACATCGC	1.03
TAAACCGACG	1.49
TAAACCTTCC	1.41
TAAACGCTTT	1.01
TAAACGGCCT	1
TAAACGTTTT	1.27
TAAACTAGAA	0.972
TAAACTATTC	0.993
TAAACTCGTC	1.17
TAAACTTCAT	0.989
TAAACTTTAG	1.05
TAAAGAGGA	0.927
TAAAGAGGAT	1.01
TAAAGCCTGT	1.01
TAAAGCGACG	1.02
TAAAGGCAGT	0.969
TAAAGGCGTA	0.967
TAAAGGGCCT	1.02
TAAAGGGTGT	1.02
TAAATAATGG	0.999
TAAATACCAC	1.05
TAAATAGTCG	0.971
TAAATCACGT	1.05

Sequence	switch fluorescence ratio
TAAATCATAT	0.975
TAAATCCAAT	0.996
TAAATGTCGA	0.921
TAAATTCCTT	1.03
TAAATTGGGA	1.01
TAAATTTGT	1.04
TAAATTTTAC	1.1
TAACACAAAT	0.981
TAACACAACT	1.07
TAACACCCTT	1.08
TAACACGAGA	1.04
TAACATCAAA	1.01
TAACCATTGC	1.08
TAACCCCGAC	1
TAACCCTGTT	0.986
TAACCGAAGC	2.06
TAACCGGTCA	1.04
TAACCTTAAT	1.08
TAACCTTCT	2.9
TAACGCCACT	2.13
TAACGCCCAT	1.08
TAACGCTATG	1.05
TAACGGACTT	1.3
TAACGGTAC	1.64
TAACGTGCAG	1

Sequence	switch fluorescence ratio
TAACGTGTCG	0.992
TAACGTGTCT	0.946
TAACGTTATA	1.05
TAACTAGTCA	1
TAACTCATTG	0.999
TAACTCCAGA	0.987
TAACTCTACT	1.15
TAACTTAGGC	1.04
TAACTTCTCT	1.01
TAACTTGTAC	1.16
TAACTTGTGC	0.968
TAAGAACAGG	1.04
TAAGACAGCG	1.15
TAAGACCGCG	1.01
TAAGACCTGC	1.12
TAAGAGCGT	0.975
TAAGAGTACC	1.01
TAAGAGTTT	1
TAAGATTCTT	0.999
TAAGCAAATC	2.01
TAAGCAACGG	1.09
TAAGCACAGA	1.15
TAAGCATGTT	1.01
TAAGCCCTAT	0.989
TAAGCCCTGC	0.973

Sequence	switch fluorescence ratio
TAAGCCTGCT	1.03
TAAGCCTTCC	2.55
TAAGCGCATA	1.18
TAAGCGCCTG	0.994
TAAGCGTACT	1.09
TAAGCTCCGC	1.04
TAAGCTCGGT	0.954
TAAGCTGAGC	1.02
TAAGGAGGTA	1
TAAGGCATGA	0.981
TAAGGGATC	0.956
TAAGGGATCG	1.04
TAAGGGTAG	0.995
TAAGGGTAGT	1.02
TAAGGTCCAG	1.02
TAAGGTGTCG	1.05
TAAGGTTTCA	0.97
TAAGTACACT	1.26
TAAGTATGGG	0.998
TAAGTCACGA	1.08
TAAGTCAGTG	1.02
TAAGTCCGAT	0.967
TAAGTCCGCG	1.1
TAAGTCGGCC	1.05
TAAGTCTTGA	0.972

Sequence	switch fluorescence ratio
TAAGTGCGTG	0.976
TAAGTGGACT	1
TAAGTGGGAT	1.03
TAAGTGGTAC	1.09
TAAGTGTA	0.968
TAAGTTCTGA	1.02
TAAGTTTAGG	0.987
TAAGTTTTCG	0.964
TAATAAAGTG	1
TAATAGCTGT	0.976
TAATAGGCCA	0.998
TAATAGTCGA	0.983
TAATAGTTAG	0.973
TAATATTCCA	0.98
TAATCAAAAT	1.04
TAATCCCCGC	1.5
TAATCCTCAA	1.13
TAATCGGGAG	0.984
TAATCTAAGG	0.957
TAATCTCTAG	1.03
TAATCTGTAC	1.24
TAATGAACCT	1.04
TAATGAAGAG	1.01
TAATGATGTA	1.04
TAATGCAGC	1.14

Sequence	switch fluorescence ratio
TAATGCGCGC	1.07
TAATGCGTTA	0.988
TAATGGCATA	0.993
TAATGTAAGA	1.05
TAATGTCAG	0.964
TAATGTGGA	1.02
TAATTACTGG	1.01
TAATTATCTG	1.03
TAATTCAATT	1.03
TAATTCATTA	1
TAATTCTATT	0.944
TAATTGTAA	0.957
TAATTGTGCC	1
TAATTTTGCT	0.944
TACAAGCGCA	1.06
TACAATCAGA	0.998
TACAATTAAG	1.01
TACACAGATC	0.979
TACACCCCGT	1.09
TACACGTGAA	1.06
TACACTGTAC	1.87
TACAGAATC	1.02
TACAGGAATA	1.05
TACAGGATAG	1.04
TACATAGTGC	1.03
